This is an account of results in US12384801B2, “Benzothiophene, thienopyridine and thienopyrimidine derivatives for the modulation of sting” (CTXT PTY LTD, priority 2019, dated 2025).

The target of this experiment is human STING (R232H) (Homo sapiens, UniProt Q86WV6). Put plainly: Differential scanning fluorimetry (DSF), huSTING (R232H). In kind it is binding. As to conditions: compound 100 μM, 2 μM protein, Tm with ligand minus Tm of protein alone (1% DMSO). On the procedure: Data were analyzed using “Meltdown analysis” protocol described by Rosa (2015).

`Cc1cccc2sc(C(=O)O)c(-c3nc4cc(C(N)=O)ccc4n3CCn3c(-c4c(C(=O)O)sc5cccc(C)c45)nc4cc(C(N)=O)ccc43)c12` (single isomer, unassigned) [Example 15.2, 3,3′-(Ethane-1,2-diylbis(5-carbamoyl-1H-benzo[d]imidazole-1,2-diyl))bis(4-methylbenzo[b]thiophene-2-carboxylic acid)]: the “DSF huSTING (R232H) ΔTm” value came to 10.23 °C.
With `NC(=O)c1ccc2c(c1)nc(-c1c(C(=O)O)sc3cccc(Cl)c13)n2CCCCn1c(-c2c(C(=O)O)sc3cccc(Cl)c23)nc2cc(C(N)=O)ccc21` [Example 3, 3,3′-(Butane-1,4-diylbis(5-carbamoyl-1H-benzo[d]imidazole-1,2-diyl))bis(4-chlorobenzo[b]thiophene-2-carboxylic acid)], the ΔTm at 100 µM is -0.15 °C.
Still for that read-out and setting: with `CCOc1cccc2sc(C(=O)O)c(-c3nc4cc(C(N)=O)ccc4n3CCn3c(-c4c(C(=O)O)sc5cccc(OCC)c45)nc4cc(C(N)=O)ccc43)c12` [Example 24, 3,3′-(Ethane-1,2-diylbis(5-carbamoyl-1H-benzo[d]imidazole-1,2-diyl))bis(4-ethoxybenzo[b]thiophene-2-carboxylic acid)] the figure was 0.81 °C; with `COc1c(C(N)=O)ccc2c1nc(-c1c(C(=O)O)sc3cccc(Cl)c13)n2CCn1c(-c2c(C(=O)O)sc3cccc(Cl)c23)nc2c(OC)c(C(N)=O)ccc21` (single isomer, unassigned) [Example 22.1, 3,3′-(Ethane-1,2-diylbis(5-carbamoyl-4-methoxy-1H-benzo[d]imidazole-1,2-diyl))bis(4-chlorobenzo[b]thiophene-2-carboxylic acid)], 30.6 °C.
